Laboratory results taken from the supplement of paper PMC12632987.
The full ranking holds about 4,500 sequences; the median of “median log2 fold change of GCK-ALFA target abundance (FLAG IP / Myc IP barcode read proportion)” is about 0.078, and the lowest 2% start at about -0.6. The list shows a part of the results.

B1: GBRAP_26_5445 (protein)
chain: IEELFDELLEELEELIDELLPPELAGPAKAEVATLLEELEEFVEENPNNFELIEKKFKEAIEELEEELRRLGVPEEKIKKIVEKARKLFEELFEKIKKEK
B2: GBRAP_11_2876 (protein)
chain: KKEKLEEGLKLAEELAKKLEELKKKGVDDEKLRKEIKKLVEELKKLVKEYGDEALKKDAEILAELVEEAEKDKENAEKYVNEALAQARVLAGQYLLELEE
B3: GBRAP_9_7114 (protein)
chain: KEVDKEVLKKAVEEAEKDLKEFAEDIENEKVKEIVEEAIKKMKALTEIEGITLEELEKKLDEIVEEATERAKKEVSPEIAAALEAELLTEKEEIIEAVEE
B4: GBRAP_11_2776 (protein)
chain: KKEKLEEAVKLARELAEAIKKLLEEGLDNEELRKKAEELLEKLEKLIKENADESLKKLAEIAKEEWEEAKKDPENAEEHAKHMLAAVEVLEGQLLLELEE
B5: GBRAP_52_5926 (protein)
chain: AAAALRARAQAILDAALAGDREGMEALIREIAKTLSLEEIEGVIAELARLVAELGPEHYDVFAEIMDLLEDAIEEEGRDVEAIQAAIARGAGILYDAEQA
B6: GBRAP_78_6674 (protein)
chain: EVEEELDKAIEHLGKAASILIKMNTEEAQEILGKVVDAASTLVEIEEGEADLKDAEEALKKLEEALKEVEKINTEEAKKAAEHLKAAIEHLKAAIKKMKE
B7: GBRAP_184_5134 (protein)
chain: ALRRAAVEATDAEELIAAARAVVDEAAAAGERLLLAVFAENMSVEEVIRVIRALGALKAAHPQVTVVVVVEDEVSEEELDRLVAAADEAGVRLVAALSDE
B8: GBRAP_150_3930 (protein)
chain: DLETLEDIVDTAIDLIEAIADGEESLVPHALKLAEHALEEAEELPEEVREKVKELLEKVIEKLKKIAAGAPEEERKKLVKEAKKLLEEALKLVEKLKKEK
B9: GBRAP_166_4949 (protein)
chain: SLEALKAELEAFIEELTAKMKTADAEERLDLLAEIAERLAEAKEAGLSDEDLLALATLALKLTKEAGGDVRQLLGVIEMFVDLTEEQRDRLAAAADEVEA
B10: GBRAP_184_5060 (protein)
chain: KVLEETIKVNNVEEAKKKIEELKEKVKDFKGDLVVSLEIKEFDKEIVKEVLEGLGEIKEKGYVKSVTLGIDAEMTEEEVDFAIELADEKGVKVVVPLSEE
B11: GBRAP_160_4056 (protein)
chain: SKEKEELIEEVKRAREEILEVIDEEGAEAAKIMAAGLFGSIIMEAAELPNASDELVDALAEIRDKLVEELEKNKDASKEELKEIVKKAAEEAIKAIEKYY
B12: GBRAP_150_3929 (protein)
chain: DLETLEDILDTAIDIIEAIAEGQEDLVPHALKLVEAAKDEAKELPEEVREKVEELLEEVIELLKAILAGAPEEERKKYIKEALEKLKEAKELVEKLKEEK
B13: GBRAP_9_7155 (protein)
chain: MEELLEKVKEVIEEAFEEIKKVVPEEVKPIVDELKEEAEKEFEKLAKDKNITKEEIVEKAKEILKKLEEELSKKVSPEIKKMVEAIVLTAELEIEELAEE
B14: GBRAP_166_4915 (protein)
chain: SMEELLEEAKRRIEELVKKIPKTDREKQVELAIEIAEVLEELEKAGASEEELDELWRHLAEALKEAGLDVERLMAVVAAAAGLDEEEMERVDEIVEEVLA
B15: GBRAP_55_6435 (protein)
chain: SEDEELDREASEDLVEVAAALIDDPEAMRRVIERLARDMAGKPIYVTKEALDLLETEEERRRFLLELVRAAKANPKITGIELVDVSEEDRALLAEAEAEA
B16: GBRAP_125_3009 (protein)
chain: HMEEIAEALGLIARRLGLSEEDVAELRELALRHGIKGTFYALFLAEGQEELADLVEKLTEEEVEEVVLEVAAELERNPDLTPEEVVALIREVLEKALAKR
B17: GBRAP_78_6644 (protein)
chain: EVEELVDKALEHIDKASKLALKLPEEERNELLDELVDASSYLLESEEEGFDLELLKKALEELEAALELVKKIDHPYAPEIKKELEKAIKLLKEAIKLLEK
B18: GBRAP_139_3733 (protein)
chain: SADDAAVAEVVALTKRSVETGGALVAEIADALNALDEDTADRAAEAMAEVLETQPFDVAEALFDALIDTLLTEHKNEDLATIVEAAANRALARIAVREEA
B19: GBRAP_52_6083 (protein)
chain: MEKEIEETANKIYEAIKAGDKEKALELIKEAIKKFSPEEIKEMLKLTAEKVASLGDEKHELFVDILTEAEDLMIEAGISEEEALLIVGDAEAALAKAVAA
B20: GBRAP_14_3858 (protein)
chain: VEEIVKAIKEAAEETKEFARELLPEHAEEVEAKIKELAEEAIKKVKEEKLNKEEVAELADEMAERLGEWIREHGWANDEEIAALRAELINNVLLKLEEIE
B21: GBRAP_128_3244 (protein)
chain: SQEELLEEAKKLVDEIVEADVEEAKELTKKLIELMKKLNKESREEVADYLIEKLKELSAEKLEAVADTLRENRPKLDDYTAALVAGVEIEALELALEQEE
B22: GBRAP_78_6739 (protein)
chain: KIEELIDEALEEIDKARELIKKLDPETQNELLDLITEALSDILLFETEGYNLEYLKEAIEHLEKAIELLKKIDTPVAKEAAKHLEKAVEYLKKAAELLEK
B23: GBRAP_184_5292 (protein)
chain: TVKRVVIEADTAEEAIAQIKAAAEAAKKAGVKLDLDLYLRNVSVEGFREIAKLLKELKEEGVIASATVDVLDERSEEETDELVKIADEAGIRLVVALSDE
B24: GBRAP_83_6946 (protein)
chain: KEKLVVATNGDNVEEGVEIAADLAKTGKYEVTLAFIGDVEAARKLIKEVGKALKKGVKFDIEIIVEGATEEEAEELRKELEKVAKEAGADVKIEVHVIPP
B25: GBRAP_53_6394 (protein)
chain: KEERIKKLIEEFRKLVEELKRADAEEAVRLAREAKAVLVELAKLGLPEEELVKLTRELAEAMRDRPELEPVLIELAKELAALGRYDAAAEVAEALVEELE
B26: GBRAP_125_3146 (protein)
chain: KRAALRALTVALARALGFSDEDIAELQRLADASDPAQAVVAVLLAAGFEEAAEVAAEVLPRLTVEEIEELRALAESLRDAPLEEVKAALLARLRELLARQ
B27: GBRAP_125_3147 (protein)
chain: KREALRRLARALARALGFSEEEIAEIERLADASDPAQTIVAILLAAGFEEAAEVAAKVLPKLTVEEIEELAELAEELEDAPLEEVKERLLKKLEELLKKL
B28: GBRAP_128_3339 (protein)
chain: VDEEKLEEVDKLVEEIIEADDEEAKKLAKELADHLVTLSLEEVEAAVEIIRKHIPKLSAEKLEILADVLREKLPLFSPEKQLIINDLIVDLLNEAEEKEE
B29: GBRAP_122_2950 (protein)
chain: ESEEEVEERVEETLERAEEEDPTEAIVESLLEAAEELTPEEVIRYAELLAERMIEKGLKAEAANAFARAALRLEEERPELAPVADHLADLAIELLDLLEE

Each binder was assayed against GABARAP, O95166 (assay: median log2 fold change of GCK-ALFA target abundance (FLAG IP / Myc IP barcode read proportion) (log2 ratio); each designed protein is fused to an ALFA-tag nanobody in HEK293 cells to bring the named protein to FLAG-tagged glucokinase (GCK); Myc marks an untargeted standard; higher = target protein stabilised (more abundant)). Conditions: target protein: 3xFLAG-MCP-GCK-ALFA reporter; HEK293 landing pad (RPLP).
Procedure, shortened: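 Sequencing of reverse-transcribed, amplified circular RNA barcodes from anti-FLAG and anti-Myc immunoprecipitates provided the readout for an ALFA-nanobody-fused binder library recombined into HEK293 landing-pad cells. Those cells were induced with 2 μg mL^−1 doxycycline, transfected with a plasmid expressing a FLAG-tagged target and a Myc-tagged standard, and lysed after 48 h. Target abundance is the per-binder median log2 ratio of FLAG to Myc barcode read proportions. Only barcodes at a proportion of ≥10^−7 in both replicates and binders with ≥3 barcodes per replicate were kept, with a 10^−6 pseudocount added before the two replicates were pooled.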

Sequence of GABARAP, O95166 (O95166 whole entry, the tested form may be a part): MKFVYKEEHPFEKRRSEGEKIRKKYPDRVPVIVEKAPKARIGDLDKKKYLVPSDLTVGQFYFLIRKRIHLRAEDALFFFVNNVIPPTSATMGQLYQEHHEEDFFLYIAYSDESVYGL

Binder | median log2 fold change
B1 | 0.0323
B2 | 0.439
B3 | 0.359
B4 | 0.228
B5 | 0.0988
B6 | 0.166
B7 | 0.0256
B8 | 0.176
B9 | 0.0529
B10 | 0.00873
B11 | 0.187
B12 | 0.292
B13 | 0.304
B14 | 0.0994
B15 | 0.0201
B16 | -0.146
B17 | -0.126
B18 | 0.133
B19 | -0.22
B20 | 0.359
B21 | -0.658
B22 | -0.312
B23 | 0.0645
B24 | -0.0546
B25 | 0.202
B26 | -0.088
B27 | -0.266
B28 | 0.172
B29 | -0.443
